{"source": "the BET-seq Pho4 binding data (Le et al. 2018)", "note": "The other results are listed elsewhere or left out. Values were computed here from the reads of four pooled replicates and scatter widely.", "data": [{"target": "T1, Pho4 (S. cerevisiae) (UniProt P07270)", "T1 sequence": "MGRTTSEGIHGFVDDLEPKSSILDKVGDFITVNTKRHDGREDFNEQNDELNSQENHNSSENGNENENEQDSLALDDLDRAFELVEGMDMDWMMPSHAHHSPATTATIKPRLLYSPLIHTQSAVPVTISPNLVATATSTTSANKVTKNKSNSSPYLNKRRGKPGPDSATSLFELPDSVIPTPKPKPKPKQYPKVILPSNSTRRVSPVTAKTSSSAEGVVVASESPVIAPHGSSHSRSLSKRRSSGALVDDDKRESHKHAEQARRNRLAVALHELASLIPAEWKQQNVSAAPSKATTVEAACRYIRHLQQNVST", "test": "relative binding free energy (BET-seq); higher = weaker binding", "conditions": "reference: library average", "units": {"relative binding free energy": "kcal/mol"}, "values": [{"sequence": "GATATCACGTGGTTAT", "relative binding free energy": 0.1}, {"sequence": "GTTGCCACGTGGTGGC", "relative binding free energy": 0}, {"sequence": "CGAGGCACGTGGTTGT", "relative binding free energy": -0.04}, {"sequence": "TATGTCACGTGCGTTA", "relative binding free energy": 0.01}, {"sequence": "GCGAGCACGTGGTGTT", "relative binding free energy": -0.15}, {"sequence": "ACTGGCACGTGTGATG", "relative binding free energy": 0.08}, {"sequence": "CAGGGCACGTGTTAGC", "relative binding free energy": 0.11}, {"sequence": "ATGTTCACGTGTCGTT", "relative binding free energy": 0.3}, {"sequence": "TTTCGCACGTGAAATT", "relative binding free energy": 0.37}, {"sequence": "GCTTGCACGTGGCGGA", "relative binding free energy": -0.04}, {"sequence": "AGGTCCACGTGTTTGG", "relative binding free energy": -0.04}, {"sequence": "GTTGTCACGTGTTCGC", "relative binding free energy": 0.05}, {"sequence": "TTATTCACGTGATGGG", "relative binding free energy": 0.35}, {"sequence": "TGCTGCACGTGGGTGT", "relative binding free energy": -0.09}, {"sequence": "TTTGCCACGTGGTTGA", "relative binding free energy": -0.13}, {"sequence": "AAGTGCACGTGAGTGG", "relative binding free energy": 0.2}, {"sequence": "TCATGCACGTGTATTT", "relative binding free energy": 0.13}, {"sequence": "TGTATCACGTGCAAGG", "relative binding free energy": 0.13}, {"sequence": "ATAGTCACGTGGTATA", "relative binding free energy": 0.01}, {"sequence": "TAGGACACGTGATGTT", "relative binding free energy": 0.19}, {"sequence": "TTGCTCACGTGTTATG", "relative binding free energy": 0.22}, {"sequence": "ATTTTCACGTGCGTTA", "relative binding free energy": 0.22}, {"sequence": "ATTAACACGTGTGGAA", "relative binding free energy": 0.12}, {"sequence": "TCGTGCACGTGGAGGA", "relative binding free energy": 0.1}, {"sequence": "GGAGACACGTGTTATT", "relative binding free energy": -0.08}, {"sequence": "AGCGTCACGTGGTGAT", "relative binding free energy": 0.05}, {"sequence": "ATTGCCACGTGGTGTT", "relative binding free energy": -0.14}, {"sequence": "CTGTACACGTGAGTTG", "relative binding free energy": 0.29}, {"sequence": "TTATGCACGTGAAGCG", "relative binding free energy": 0.27}, {"sequence": "ATTCTCACGTGGGGGC", "relative binding free energy": 0.15}, {"sequence": "GTTGTCACGTGCGTTC", "relative binding free energy": 0}, {"sequence": "AGTTTCACGTGCAGTC", "relative binding free energy": 0.43}, {"sequence": "TTATTCACGTGTACGA", "relative binding free energy": 0.34}, {"sequence": "GTTGCCACGTGGGATT", "relative binding free energy": -0.16}, {"sequence": "AGTTACACGTGATTTA", "relative binding free energy": 0.1}, {"sequence": "AGTGTCACGTGCTTGT", "relative binding free energy": 0.06}, {"sequence": "TGCGTCACGTGTTCTT", "relative binding free energy": 0.13}, {"sequence": "GGTTGCACGTGTTATG", "relative binding free energy": 0.1}, {"sequence": "GGGAACACGTGCGAGG", "relative binding free energy": 0.01}, {"sequence": "TGTATCACGTGGCAAG", "relative binding free energy": 0.08}, {"sequence": "TGTGCCACGTGTTTGC", "relative binding free energy": -0.09}, {"sequence": "TGGATCACGTGCGAGT", "relative binding free energy": 0.27}, {"sequence": "ATCGACACGTGCGGGG", "relative binding free energy": -0.06}, {"sequence": "GGGCGCACGTGGGTTT", "relative binding free energy": -0.07}, {"sequence": "TATCTCACGTGTAATT", "relative binding free energy": 0.27}, {"sequence": "TAAGCCACGTGGGTTT", "relative binding free energy": -0.14}, {"sequence": "CTTTTCACGTGGCGTG", "relative binding free energy": 0.15}, {"sequence": "TGGCACACGTGGGATC", "relative binding free energy": 0.2}, {"sequence": "ATTGGCACGTGGACGG", "relative binding free energy": -0.12}, {"sequence": "AGCGACACGTGGAGGT", "relative binding free energy": -0.06}, {"sequence": "AATGGCACGTGGGCGA", "relative binding free energy": -0.16}, {"sequence": "GGGTCCACGTGTAGGA", "relative binding free energy": 0.05}, {"sequence": "GTTTTCACGTGAGTGT", "relative binding free energy": 0.47}, {"sequence": "ATCGGCACGTGGCGAG", "relative binding free energy": -0.13}, {"sequence": "TCTGGCACGTGGGTCA", "relative binding free energy": -0.36}, {"sequence": "GGGGACACGTGTAATT", "relative binding free energy": 0.18}, {"sequence": "AAGAGCACGTGGTTCG", "relative binding free energy": -0.16}, {"sequence": "CGAGGCACGTGTGTTG", "relative binding free energy": -0.07}, {"sequence": "CGGGGCACGTGGGAGA", "relative binding free energy": -0.18}, {"sequence": "ATATACACGTGTGAAG", "relative binding free energy": 0.17}, {"sequence": "TCGGACACGTGGGGGC", "relative binding free energy": -0.05}, {"sequence": "TGAGGCACGTGTGCGA", "relative binding free energy": -0.18}, {"sequence": "GGTGTCACGTGAAGGT", "relative binding free energy": 0.26}, {"sequence": "TGAATCACGTGAGTAG", "relative binding free energy": 0.42}, {"sequence": "TTGGTCACGTGGGTGG", "relative binding free energy": 0.04}, {"sequence": "CGGCGCACGTGGGAGG", "relative binding free energy": -0.2}, {"sequence": "GTTTTCACGTGTGTTA", "relative binding free energy": 0.31}, {"sequence": "TCAGGCACGTGTTGAG", "relative binding free energy": -0.09}, {"sequence": "ATGTTCACGTGCTGCT", "relative binding free energy": 0.1}, {"sequence": "TAAGCCACGTGGGGGG", "relative binding free energy": -0.19}, {"sequence": "TGTGTCACGTGTTCGA", "relative binding free energy": -0.1}, {"sequence": "GGCTTCACGTGAGGTA", "relative binding free energy": 0.41}, {"sequence": "TTTGACACGTGGGAGT", "relative binding free energy": -0.08}]}]}
